Test results published in PubChem BioAssay (NCI).
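Briefly, cells in 96-well plates were exposed to five compound concentrations for 48 h, and endpoints were estimated by linear interpolation. TGI: concentration producing complete growth inhibition.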

Experiments:
Experiment in all cases: DTP human tumour cell line panel, 48 h
TK-10 renal = tested on: TK-10 renal
K-562 leukemia = tested on: K-562 leukemia
CAKI-1 renal = tested on: CAKI-1 renal
HL-60(TB) leukemia = tested on: HL-60(TB) leukemia
SK-OV-3 ovarian = tested on: SK-OV-3 ovarian
OVCAR-8 ovarian = tested on: OVCAR-8 ovarian
M14 melanoma = tested on: M14 melanoma
HCT-116 colon = tested on: HCT-116 colon
BT-549 breast = tested on: BT-549 breast
OVCAR-5 ovarian = tested on: OVCAR-5 ovarian
SNB-75 CNS = tested on: SNB-75 CNS
SK-MEL-28 melanoma = tested on: SK-MEL-28 melanoma
MCF7 breast = tested on: MCF7 breast
HOP-62 NSCLC = tested on: HOP-62 NSCLC
T-47D breast = tested on: T-47D breast
MOLT-4 leukemia = tested on: MOLT-4 leukemia
786-0 renal = tested on: 786-0 renal
HT29 colon = tested on: HT29 colon
MDA-MB-435 = tested on: MDA-MB-435
UO-31 renal = tested on: UO-31 renal
NCI/ADR-RES ovarian = tested on: NCI/ADR-RES ovarian
UACC-257 melanoma = tested on: UACC-257 melanoma
HS 578T breast = tested on: HS 578T breast
MALME-3M melanoma = tested on: MALME-3M melanoma
SW-620 colon = tested on: SW-620 colon
SF-295 CNS = tested on: SF-295 CNS
HCT-15 colon = tested on: HCT-15 colon
COLO 205 colon = tested on: COLO 205 colon
IGROV1 ovarian = tested on: IGROV1 ovarian
OVCAR-4 ovarian = tested on: OVCAR-4 ovarian
RXF 393 renal = tested on: RXF 393 renal
PC-3 prostate = tested on: PC-3 prostate
EKVX NSCLC = tested on: EKVX NSCLC
RPMI-8226 leukemia = tested on: RPMI-8226 leukemia
MDA-N = tested on: MDA-N
SN12C renal = tested on: SN12C renal
SF-268 CNS = tested on: SF-268 CNS
LOX IMVI melanoma = tested on: LOX IMVI melanoma
NCI-H226 lung = tested on: NCI-H226 lung
MDA-MB-231 breast = tested on: MDA-MB-231 breast
SK-MEL-5 melanoma = tested on: SK-MEL-5 melanoma
A549 NSCLC = tested on: A549 NSCLC
SR leukemia = tested on: SR leukemia
NCI-H23 lung = tested on: NCI-H23 lung
NCI-H522 lung = tested on: NCI-H522 lung
UACC-62 melanoma = tested on: UACC-62 melanoma
KM12 colon = tested on: KM12 colon
U251 CNS = tested on: U251 CNS
DU-145 prostate = tested on: DU-145 prostate
SK-MEL-2 melanoma = tested on: SK-MEL-2 melanoma
ACHN renal = tested on: ACHN renal
OVCAR-3 ovarian = tested on: OVCAR-3 ovarian
A498 renal = tested on: A498 renal
CCRF-CEM leukemia = tested on: CCRF-CEM leukemia
SNB-19 CNS = tested on: SNB-19 CNS

**Q.** `CN1C2CCC1CC(OC(=O)C(O)c1ccccc1)C2` (stereo not given) was tested. Which TGI (TK-10 renal) did it give?
**A.** Its TGI is > 100 µM.

**Q.** And the TGI (K-562 leukemia)?
**A.** The TGI was > 100 µM.

**Q.** What about the TGI (CAKI-1 renal) of the same compound?
**A.** Its TGI is > 100 µM.

**Q.** And the TGI (HL-60(TB) leukemia)?
**A.** Its TGI is > 100 µM.

**Q.** What about the TGI (SK-OV-3 ovarian) of the same compound?
**A.** The TGI was > 100 µM.

**Q.** And the TGI (OVCAR-8 ovarian)?
**A.** The TGI was > 100 µM.

**Q.** What about the TGI (M14 melanoma) of the same compound?
**A.** Its TGI is > 100 µM.

**Q.** What about the TGI (HCT-116 colon) of the same compound?
**A.** The TGI was > 100 µM.

**Q.** And the TGI (BT-549 breast)?
**A.** The TGI was > 100 µM.

**Q.** What about the TGI (OVCAR-5 ovarian) of the same compound?
**A.** The TGI was > 100 µM.

**Q.** What about the TGI (SNB-75 CNS) of the same compound?
**A.** The TGI was > 100 µM.

**Q.** And the TGI (SK-MEL-28 melanoma)?
**A.** Its TGI is > 100 µM.

**Q.** And the TGI (MCF7 breast)?
**A.** The TGI was > 100 µM.

**Q.** And the TGI (HOP-62 NSCLC)?
**A.** The TGI was > 100 µM.

**Q.** What about the TGI (T-47D breast) of the same compound?
**A.** Its TGI is > 100 µM.

**Q.** And the TGI (MOLT-4 leukemia)?
**A.** The TGI was > 100 µM.

**Q.** What about the TGI (786-0 renal) of the same compound?
**A.** Its TGI is > 100 µM.

**Q.** What about the TGI (HT29 colon) of the same compound?
**A.** The TGI was > 100 µM.

**Q.** And the TGI (MDA-MB-435)?
**A.** Its TGI is > 100 µM.

**Q.** What about the TGI (UO-31 renal) of the same compound?
**A.** The TGI was > 100 µM.

**Q.** What about the TGI (NCI/ADR-RES ovarian) of the same compound?
**A.** Its TGI is > 100 µM.

**Q.** What about the TGI (UACC-257 melanoma) of the same compound?
**A.** The TGI was > 100 µM.

**Q.** And the TGI (HS 578T breast)?
**A.** The TGI was > 100 µM.

**Q.** And the TGI (MALME-3M melanoma)?
**A.** The TGI was > 100 µM.

**Q.** What about the TGI (SW-620 colon) of the same compound?
**A.** The TGI was > 100 µM.

**Q.** And the TGI (SF-295 CNS)?
**A.** Its TGI is > 100 µM.

**Q.** What about the TGI (HCT-15 colon) of the same compound?
**A.** The TGI was > 100 µM.

**Q.** And the TGI (COLO 205 colon)?
**A.** Its TGI is > 100 µM.

**Q.** What about the TGI (IGROV1 ovarian) of the same compound?
**A.** The TGI was > 100 µM.

**Q.** What about the TGI (OVCAR-4 ovarian) of the same compound?
**A.** Its TGI is > 100 µM.

**Q.** What about the TGI (RXF 393 renal) of the same compound?
**A.** The TGI was > 100 µM.

**Q.** What about the TGI (PC-3 prostate) of the same compound?
**A.** The TGI was > 100 µM.

**Q.** And the TGI (EKVX NSCLC)?
**A.** Its TGI is > 100 µM.

**Q.** What about the TGI (RPMI-8226 leukemia) of the same compound?
**A.** Its TGI is 89.1 µM.

**Q.** And the TGI (MDA-N)?
**A.** Its TGI is > 100 µM.

**Q.** And the TGI (SN12C renal)?
**A.** The TGI was > 100 µM.

**Q.** What about the TGI (SF-268 CNS) of the same compound?
**A.** The TGI was > 100 µM.

**Q.** What about the TGI (LOX IMVI melanoma) of the same compound?
**A.** Its TGI is > 100 µM.

**Q.** And the TGI (NCI-H226 lung)?
**A.** The TGI was > 100 µM.

**Q.** And the TGI (MDA-MB-231 breast)?
**A.** The TGI was > 100 µM.

**Q.** And the TGI (SK-MEL-5 melanoma)?
**A.** Its TGI is > 100 µM.

**Q.** What about the TGI (A549 NSCLC) of the same compound?
**A.** Its TGI is > 100 µM.

**Q.** And the TGI (SR leukemia)?
**A.** Its TGI is > 100 µM.

**Q.** What about the TGI (NCI-H23 lung) of the same compound?
**A.** Its TGI is > 100 µM.

**Q.** And the TGI (NCI-H522 lung)?
**A.** Its TGI is > 100 µM.

**Q.** What about the TGI (UACC-62 melanoma) of the same compound?
**A.** The TGI was > 100 µM.

**Q.** And the TGI (KM12 colon)?
**A.** The TGI was > 100 µM.

**Q.** What about the TGI (U251 CNS) of the same compound?
**A.** Its TGI is > 100 µM.

**Q.** And the TGI (DU-145 prostate)?
**A.** Its TGI is > 100 µM.

**Q.** And the TGI (SK-MEL-2 melanoma)?
**A.** Its TGI is > 100 µM.

**Q.** And the TGI (ACHN renal)?
**A.** The TGI was > 100 µM.

**Q.** What about the TGI (OVCAR-3 ovarian) of the same compound?
**A.** Its TGI is > 100 µM.

**Q.** What about the TGI (A498 renal) of the same compound?
**A.** Its TGI is > 100 µM.

**Q.** What about the TGI (CCRF-CEM leukemia) of the same compound?
**A.** Its TGI is > 100 µM.

**Q.** What about the TGI (SNB-19 CNS) of the same compound?
**A.** The TGI was > 100 µM.
